What all share (experiment): Primary Screen for Target Class Profiling of Small Molecule Inhibitors of Methyltransferases
Test [1] concerns the target Glycine N-methyltransferase (Homo sapiens) (UniProt Q14749). Particulars: purified enzyme, MTase-Glo SAH luminescence; measured here: GNMT inhibition; at 40 µM; stronger effect = lower value. Summed up: (§1)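 Each enzyme was assayed with SAM and its substrate. SAH formation detected by MTase-Glo luminescence; single-point 40 uM screen[…].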
Test [2] addresses Guanidinoacetate N-methyltransferase (Homo sapiens) (UniProt Q14353). The note with it: purified enzyme, MTase-Glo SAH luminescence; measured here: GAMT inhibition; at 40 µM; stronger effect = lower value. In a few lines: as §1
The target of test [3] is Histamine N-methyltransferase (Homo sapiens) (UniProt P50135). The note with it: purified enzyme, MTase-Glo SAH luminescence; measured here: HNMT inhibition; at 40 µM; stronger effect = lower value. In a few lines: as §1
The target of test [4] is Nicotinamide N-methyltransferase (Homo sapiens) (UniProt P40261). Particulars: purified enzyme, MTase-Glo SAH luminescence; measured here: NNMT inhibition; at 40 µM; stronger effect = lower value. Summed up:
as §1

Test [5] deals with Phenylethanolamine N-methyltransferase (Homo sapiens) (UniProt P11086). Particulars: purified enzyme, MTase-Glo SAH luminescence; measured here: PNMT inhibition; at 40 µM; stronger effect = lower value. In a few lines:
as §1

Here are results for 36 molecules from PubChem BioAssay AID1745853 (National Center for Advancing Translational Sciences (NCATS), 2022).

The other results are listed elsewhere or left out. Shown are side measurements of this screen, not its main read-out; they come without a call. Square brackets hold non-standard residues; d marks the D form. Peptide text beside a SMILES is read from it. ξ: configuration not given here. ξPhe(βξ-Me) = CC(c1ccccc1)C(N)C(=O)O; GABA = NCCCC(=O)O
On the % scale 0 is the no-effect control and ±100 the full control effect.

In the case of `CC(C)Cn1c(=O)c2ccccc2n2c(SCC(=O)Nc3ccc(C(C)C)cc3)nnc12`, the activity change, negative = inhibition in test [1] is -0.88%; in test [2], 2.21%; in test [3], 9.81%; in test [4], -6.52%; in test [5], 1.95%.

For the molecule `CN1c2c(nc(N)[nH]c2=O)NC[C@@H]1CNc1ccc(C(=O)N[C@@H](CCC(=O)O)C(=O)O)cc1`, the activity change, negative = inhibition was -4.35% in test [1]; -16.8% in test [2]; 8.58% in test [3]; -16.3% in test [4]; -1.84% in test [5].

`COc1cc(O)cc2c1C(=O)OC(C)C2` (stereo not given): the activity change, negative = inhibition in test [1] is -0.542%; in test [2] it was -18.9%; in test [3], -1.18%; in test [4], -30.3%; in test [5], -2.41%.

In the case of `COc1cc2c(CCNC(C)=O)c[nH]c2cc1O`, the activity change, negative = inhibition is -63.7% in test [1]; 2.85% in test [2]; -4.95% in test [3]; -11.1% in test [4]; 2.5% in test [5].

As to `C[C@@H]1CC[C@]2(C)C(C[C@@H](O)[C@H](O)[C@]23CO3)[C@@]1(C)CCc1ccoc1` (stereo not given in full), the activity change, negative = inhibition in test [1] was -1.24%; in test [2] it was 5.7%; in test [3], 8.95%; in test [4], -9.12%; in test [5] it was 0.023%.

As for `CCN1CC(C(=O)N(C)Cc2ccc(Oc3ccccc3)cc2)CCC1=O` (stereo not given), the activity change, negative = inhibition in test [1] was 0.653%; in test [2], 1.42%; in test [3], 1.03%; in test [4], -1.76%; in test [5], -1.55%.

Consider `O=C(c1cccnc1)N1CCn2cc(C(=O)N3CCOCC3)nc2C1`, for which the activity change, negative = inhibition in test [1] is -0.314%; in test [2] it was -0.933%; in test [3], 1.92%; in test [4], 0.241%; in test [5], 0.977%.

For `CCOc1cn(-c2ccc(F)cc2C)nc1C(=O)Nc1ccc(Oc2ccnc3cc(OC)c(OC)cc23)c(F)c1`, the activity change, negative = inhibition in test [1] was -0.281%; in test [2], -16.9%; in test [3], 7.41%; in test [4] it was -40.7%; in test [5], -5.73%.

Take `CCC(C)NC(=O)c1ccc2c(=O)n(CCC(C)C)c3nn(CC(=O)c4ccc(C)cc4)c(=O)n3c2c1` (stereo not given): the activity change, negative = inhibition was 0.32% in test [1]; 6.42% in test [2]; 7.15% in test [3]; -4.28% in test [4]; 0.632% in test [5].

With `CC(C)CC1NC(=O)C(C(C)c2ccccc2)NC(=O)C(C(C)C)NC(=O)C(C)NC(=O)CCCNC(=O)C(Cc2c[nH]c3ccccc23)NC(=O)C(C)NC1=O` (stereo not drawn) (cyclo([GABA]AV[ξPhe(βξ-Me)]LAW); configuration not given here), the activity change, negative = inhibition in test [1] is 0%; in test [2], 1.38%; in test [3] it was -1.81%; in test [4] it was -13.4%; in test [5], 2.25%.

For `Fc1ccc(N2CCN(CCC3OCCc4ccccc43)CC2)cc1` (stereo not given), the activity change, negative = inhibition was 2.66% in test [1]; -2.14% in test [2]; -26.5% in test [3]; -14.6% in test [4]; -9.22% in test [5].

Consider `Cc1cc2c(cc1C1(c3ccc(C(=O)O)cn3)CC1)C(C)(C)CCC2(C)C`, for which the activity change, negative = inhibition in test [1] was 3.54%; in test [2] it was -2.23%; in test [3], 10.1%; in test [4], -24.9%; in test [5] it was 4.85%.

With `CC(C(=O)N1CCOCC1)n1ccc2cc(S(=O)(=O)N3CCCC3)ccc21` (stereo not given), the activity change, negative = inhibition amounted to 5.19% in test [1]; 1.15% in test [2]; 3.82% in test [3]; 4.66% in test [4]; 2.85% in test [5].

Regarding `CCC(C)NC(=O)c1ccc2c(=O)n(C)c3nnc(SCC(=O)Nc4ccccc4C)n3c2c1` (stereo not given), the activity change, negative = inhibition in test [1] was 1.43%; in test [2], 0%; in test [3], -1.47%; in test [4], -0.93%; in test [5], 2.92%.

In the case of `CCOCCCN1C(=O)c2ccc(-c3ccccc3)n2CC1(C)C(=O)NC1CCCCCC1` (stereo not given), the activity change, negative = inhibition in test [1] came out at 4.53%; in test [2], 0%; in test [3], 0.025%; in test [4] it was 1.88%; in test [5], 0.494%.

For the molecule `COc1ccc(CCNC(=O)c2cc3n(n2)CC(C)(C(=O)NCc2ccc(C)cc2)N(C)C3=O)cc1OC` (stereo not given), the activity change, negative = inhibition was -3.31% in test [1]; 3.37% in test [2]; -8.9% in test [3]; 5.66% in test [4]; 1.41% in test [5].

Take `CC1(C)CC[C@]2(C(=O)O)CC[C@]3(C)C(=CCC4[C@@]5(C)C[C@@H](O)[C@H](O)[C@@](C)(CO)C5CC[C@]43C)[C@@H]2[C@@H]1O` (stereo not given in full): the activity change, negative = inhibition in test [1] is 2.55%; in test [2], 7.37%; in test [3], 9.48%; in test [4] it was -4.25%; in test [5] it was 7.49%.

Regarding `CC1CCC(NC(=O)C2(C)Cn3c(ccc3-c3ccco3)C(=O)N2CCCN2CCCCC2)CC1` (stereo not given), the activity change, negative = inhibition in test [1] was -3.12%; in test [2] it was 2.27%; in test [3], -4.1%; in test [4] it was -1.69%; in test [5] it was -0.452%.

For the molecule `Cc1cccc(Cn2nc3n(C)c(=O)c4ccc(C(=O)NCC(C)C)cc4n3c2=O)c1`, the activity change, negative = inhibition in test [1] is -0.59%; in test [2] it was 0%; in test [3] it was 10%; in test [4], -5.09%; in test [5] it was 4.03%.

For `COc1cccc(CNc2nc3c(S(=O)(=O)c4ccc(Cl)cc4)nnn3c3ccccc23)c1`, the activity change, negative = inhibition was determined as 1.44% in test [1]; 0% in test [2]; 6.69% in test [3]; 1.95% in test [4]; 1.67% in test [5].

As to `COc1ccc(CCNC(=O)c2c(-c3ccccc3)cc(=O)n3c2CCC3)cc1OC`, the activity change, negative = inhibition in test [1] was -7.73%; in test [2] it was -9.54%; in test [3], -4.34%; in test [4], -10.7%; in test [5], -0.609%.

In the case of `O=C(N[C@@H]1COCC[C@@H]1OCC1CC1)c1ccc2c(c1)CCCO2`, the activity change, negative = inhibition in test [1] was -1.37%; in test [2] it was 1.45%; in test [3] it was -0.058%; in test [4] it was -1.64%; in test [5] it was -0.871%.

`Cc1cc(OC2CN(Cc3ccnn3C)C2)ccc1F`: the activity change, negative = inhibition in test [1] is -6.22%; in test [2], -4.93%; in test [3] it was -1.86%; in test [4], -6.14%; in test [5], -6.85%.

Regarding `COc1cccc(Cn2nc3n(C)c(=O)c4ccc(C(=O)NC5CCCCC5)cc4n3c2=O)c1`, the activity change, negative = inhibition in test [1] is -1.86%; in test [2], 1.66%; in test [3], 1.11%; in test [4] it was -2.37%; in test [5] it was 0.357%.

Turning to `CCCN1C(=O)c2c(C(=O)NCc3cccc(F)c3)ncn2CC1(C)C(=O)NC1CCCC1` (stereo not given), the activity change, negative = inhibition stood at 2.38% in test [1]; 2.44% in test [2]; 9.06% in test [3]; 8.09% in test [4]; 10.1% in test [5].

Consider `CC(C)(C)c1cc2n(n1)CC(C)(C(=O)NC1CCCCC1)N(CCCc1ccccc1)C2=O` (stereo not given), for which the activity change, negative = inhibition is -1.41% in test [1]; 3% in test [2]; 5.07% in test [3]; -1.23% in test [4]; 0.823% in test [5].

Turning to `COCC(=O)N1CCCCC1c1nc(-c2ccccc2)n[nH]1` (stereo not given), the activity change, negative = inhibition in test [1] was -2.11%; in test [2], 0.37%; in test [3] it was -0.843%; in test [4], -2.24%; in test [5] it was -5.82%.

For `CSCCC(=O)N1CCc2c(ncnc2N2CCOCC2)C1`, the activity change, negative = inhibition is -2.64% in test [1]; -2.92% in test [2]; 1.76% in test [3]; -1.8% in test [4]; 0.226% in test [5].

On to `CNC(=O)c1cc(C2CC2)nc2c1c(C1CCN([S+](=O)([O-])c3c(C)noc3C)CC1)nn2C`, for which the activity change, negative = inhibition is -2.23% in test [1]; -0.966% in test [2]; -0.155% in test [3]; -9.4% in test [4]; 7.52% in test [5].

Take `COc1cc(/C=C/C(=O)O[C@H]2[C@H](O)[C@@H](CO)O[C@@]2(CO)O[C@H]2O[C@H](CO)[C@@H](O)[C@H](O)[C@H]2O)cc(OC)c1O`: the activity change, negative = inhibition was 3.37% in test [1]; 7.4% in test [2]; 4.36% in test [3]; -5.66% in test [4]; 3.8% in test [5].

Take `O=C(NC[C@H](O)CN1CCc2ccccc2C1)c1ccnc(NC2CCC2)c1`: the activity change, negative = inhibition in test [1] was 2.04%; in test [2], 7.19%; in test [3], -6.42%; in test [4], -10.8%; in test [5] it was -0.166%.

Turning to `CC(C)CCN1C(=O)c2c(-n3cccc3)c3cc(F)ccc3n2CC1(C)C(=O)NC1CCCCCC1` (stereo not given), the activity change, negative = inhibition is -8.88% in test [1]; 3.37% in test [2]; -4.16% in test [3]; -12.7% in test [4]; 2.25% in test [5].

`C=C1CC[C@@H]2[C@](C)(CO)[C@H](O[C@@H]3O[C@H](CO)[C@@H](O)[C@H](O)[C@H]3O)CC[C@@]2(C)[C@@H]1C/C=C1/C(=O)OC[C@H]1O`: the activity change, negative = inhibition in test [1] was -9.71%; in test [2] it was -7.91%; in test [3], -2.9%; in test [4], -18.6%; in test [5] it was -18.1%.

For `Cc1cc(C)c(S(=O)(=O)N(Cc2ccc(-c3cccc(S(C)(=O)=O)c3)cc2)Cc2ccc(C(F)(F)F)o2)c(C)c1`, the activity change, negative = inhibition in test [1] was 8.24%; in test [2], -20.4%; in test [3], 7.87%; in test [4], -26.9%; in test [5], -6.95%.

With `Cc1cc(NC(=O)N2CCn3cccc3C2C)ccc1Br` (stereo not given), the activity change, negative = inhibition in test [1] was -1.38%; in test [2] it was 0%; in test [3] it was -3.21%; in test [4], -6.8%; in test [5], -0.522%.

Turning to `CC(=O)N1CC2(CCN(C(=O)NCc3ccccc3)CC2)CC1C(=O)O` (stereo not given), the activity change, negative = inhibition in test [1] was -2.77%; in test [2], -1.46%; in test [3], -0.991%; in test [4], -3.33%; in test [5], 0.418%.
